# Reference: the supplement of paper PMC10037445
# Whole data set: some 2,900 compounds, median “IRF Lucia reporter activity, fold change vs agonist alone” near 0.9, cut for the highest 2% near 2.8. This is one part of the list.
# Legend:
# RAW-Dual [1] = assay: IRF Lucia reporter activity, fold change vs agonist alone; higher = enhanced IRF activity; conditions: agonist: MPLA (TLR4) […]
# How it was run: (§1)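 Supernatant from RAW-Dual macrophages was read after 20 hours for IRF by QuantiLuc luminescence and for NF-κB by QuantiBlue absorbance at 620 nm. The cells (50,000 cells/well in DMEM, 384-well plates, 37 °C, 5% CO2) had received 50 nL of library stock by pin tool and, 1 h later, a PRR agonist. Reporter activity is expressed relative to agonist-alone wells as fold change, and wells were flagged cytotoxic if IncuCyte confluency was under 70% of agonist controls in both mask sets.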
# RAW-Dual [2] = assay: IRF Lucia reporter activity, fold change vs agonist alone; cytotoxicity flag (confluency mask): not cytotoxic; higher = enhanced IRF activity
# How it was run: as §1
# RAW-Dual [3] = assay: IRF Lucia reporter activity, fold change vs agonist alone; cytotoxicity flag (confluency mask): cytotoxic (confluency <70% of control); higher = enhanced IRF activity
# How it was run: as §1
# [4] = library stock concentration (final ~1000-fold dilution): 10 mM, cytotoxicity flag (confluency mask): not cytotoxic
# [5] = agonist: 3'3'-cGAMP (STING) 10 ug/mL
# [6] = library stock concentration (final ~1000-fold dilution): 10 mM, cytotoxicity flag (confluency mask): cytotoxic (confluency <70% of control)
# [7] = library stock concentration (final ~1000-fold dilution): 2 mM, cytotoxicity flag (confluency mask): not cytotoxic
compound,measurement,setting,value
COc1ccc(C2CC(=O)c3c(O)cc(O)cc3O2)cc1O (stereo not drawn),IRF Lucia reporter activity,RAW-Dual [1]; [4],0.881
COc1ccc(C2CC(=O)c3c(O)cc(O)cc3O2)cc1O (stereo not drawn) (library stock concentration (final ~1000-fold dilution): 10 mM),IRF Lucia reporter activity,RAW-Dual [2]; [5],0.902
same,IRF Lucia reporter activity,RAW-Dual [2]; agonist: LPS (TLR4) 0.1 ug/mL,0.842
CC#CC(=O)N1CCCC1c1nc(-c2ccc(C(=O)Nc3ccccn3)cc2)c2c(N)nccn12 (stereo not drawn) (library stock concentration (final ~1000-fold dilution): 10 mM),IRF Lucia reporter activity,RAW-Dual [2]; [5],0.499
same,IRF Lucia reporter activity,RAW-Dual [2]; agonist: LPS (TLR4) 0.1 ug/mL,0.827
CC(C)c1cc(C(=O)N2Cc3ccc(CN4CCN(C)CC4)cc3C2)c(O)cc1O,IRF Lucia reporter activity,RAW-Dual [1]; [6],2.27
CC(C)c1cc(C(=O)N2Cc3ccc(CN4CCN(C)CC4)cc3C2)c(O)cc1O (library stock concentration (final ~1000-fold dilution): 10 mM),IRF Lucia reporter activity,RAW-Dual [3]; [5],0.851
same,IRF Lucia reporter activity,RAW-Dual [3]; agonist: LPS (TLR4) 0.1 ug/mL,1.03
CN1CCC(COc2cnc(-c3cccc(Cn4nc(-c5cccc(C#N)c5)ccc4=O)c3)nc2)CC1,IRF Lucia reporter activity,RAW-Dual [1]; [4],1.37
CN1CCC(COc2cnc(-c3cccc(Cn4nc(-c5cccc(C#N)c5)ccc4=O)c3)nc2)CC1 (library stock concentration (final ~1000-fold dilution): 10 mM),IRF Lucia reporter activity,RAW-Dual [2]; [5],0.676
same,IRF Lucia reporter activity,RAW-Dual [2]; agonist: LPS (TLR4) 0.1 ug/mL,3.96
CCOC(=O)C1=C[C@]2(CC)CCCN3CCc4c(n1c1ccccc41)[C@@H]32 (library stock concentration (final ~1000-fold dilution): 10 mM),IRF Lucia reporter activity,RAW-Dual [2]; [5],1.11
same,IRF Lucia reporter activity,RAW-Dual [2]; agonist: LPS (TLR4) 0.1 ug/mL,1.39
Cn1nc(-c2cnc(N)c(-c3ccc(C(N)=O)c(F)c3)n2)nc1C1(c2ccccc2)CC1 (library stock concentration (final ~1000-fold dilution): 10 mM),IRF Lucia reporter activity,RAW-Dual [2]; [5],0.296
same,IRF Lucia reporter activity,RAW-Dual [2]; agonist: LPS (TLR4) 0.1 ug/mL,0.7
CC1Oc2cc(cnc2N)-c2c(nn(C)c2C#N)CN(C)C(=O)c2ccc(F)cc21 (stereo not drawn),IRF Lucia reporter activity,RAW-Dual [1]; [4],1.15
CC1Oc2cc(cnc2N)-c2c(nn(C)c2C#N)CN(C)C(=O)c2ccc(F)cc21 (stereo not drawn) (library stock concentration (final ~1000-fold dilution): 10 mM),IRF Lucia reporter activity,RAW-Dual [2]; [5],1.1
same,IRF Lucia reporter activity,RAW-Dual [2]; agonist: LPS (TLR4) 0.1 ug/mL,1.15
COc1cc(OCc2cccc(-c3ccccc3)c2C)cc(OC)c1CN1CCCCC1C(=O)O (stereo not drawn) (library stock concentration (final ~1000-fold dilution): 10 mM),IRF Lucia reporter activity,RAW-Dual [3]; [5],0.386
same,IRF Lucia reporter activity,RAW-Dual [3]; agonist: LPS (TLR4) 0.1 ug/mL,2.67
Cl.O=C1c2cccc3c2C(CCC3)CN1C1CN2CCC1CC2 (stereo not drawn),IRF Lucia reporter activity,"RAW-Dual [1]; library stock concentration (final ~1000-fold dilution): 10 mM water, cytotoxicity flag (confluency mask): not cytotoxic",1.26
Cl.O=C1c2cccc3c2C(CCC3)CN1C1CN2CCC1CC2 (stereo not drawn) (library stock concentration (final ~1000-fold dilution): 10 mM water),IRF Lucia reporter activity,RAW-Dual [2]; [5],0.725
same,IRF Lucia reporter activity,RAW-Dual [2]; agonist: LPS (TLR4) 0.1 ug/mL,0.832
C=CC(=O)Nc1cc(N2CCN(CC)CC2)ccc1Nc1cc(N(C)C(=O)Nc2c(Cl)c(OC)cc(OC)c2Cl)ncn1 (library stock concentration (final ~1000-fold dilution): 10 mM),IRF Lucia reporter activity,RAW-Dual [2]; [5],0.0728
same,IRF Lucia reporter activity,RAW-Dual [2]; agonist: LPS (TLR4) 0.1 ug/mL,0.31
O=C(N/N=C/c1c(O)ccc2ccccc12)c1ccncc1 (library stock concentration (final ~1000-fold dilution): 10 mM),IRF Lucia reporter activity,RAW-Dual [2]; [5],0.957
same,IRF Lucia reporter activity,RAW-Dual [2]; agonist: LPS (TLR4) 0.1 ug/mL,1.35
O=C(N/N=C/c1c(O)ccc2ccccc12)c1ccncc1,IRF Lucia reporter activity,RAW-Dual [1]; [4],1.51
CNC1CN(c2ccc3c(=O)c(C(=O)O)cn(-c4nccs4)c3n2)CC1OC.Cl (stereo not drawn) (library stock concentration (final ~1000-fold dilution): 2 mM),IRF Lucia reporter activity,RAW-Dual [2]; [5],0.426
same,IRF Lucia reporter activity,RAW-Dual [2]; agonist: LPS (TLR4) 0.1 ug/mL,0.949
CNC1CN(c2ccc3c(=O)c(C(=O)O)cn(-c4nccs4)c3n2)CC1OC.Cl (stereo not drawn),IRF Lucia reporter activity,RAW-Dual [1]; [7],1.31
CN(C)C/C=C/C(=O)Nc1ccc(C(=O)Nc2cccc(Nc3ncc(Cl)c(-c4c[nH]c5ccccc45)n3)c2)cc1.Cl.Cl,IRF Lucia reporter activity,RAW-Dual [1]; [6],0.0174
CN(C)C/C=C/C(=O)Nc1ccc(C(=O)Nc2cccc(Nc3ncc(Cl)c(-c4c[nH]c5ccccc45)n3)c2)cc1.Cl.Cl (library stock concentration (final ~1000-fold dilution): 10 mM),IRF Lucia reporter activity,RAW-Dual [3]; [5],0.00865
same,IRF Lucia reporter activity,RAW-Dual [3]; agonist: LPS (TLR4) 0.1 ug/mL,0.0152
Cc1coc2c1C(=O)C(=O)c1c-2ccc2c(C)cccc12 (library stock concentration (final ~1000-fold dilution): 10 mM),IRF Lucia reporter activity,RAW-Dual [2]; [5],0.767
same,IRF Lucia reporter activity,RAW-Dual [2]; agonist: LPS (TLR4) 0.1 ug/mL,0.764
Cc1coc2c1C(=O)C(=O)c1c-2ccc2c(C)cccc12,IRF Lucia reporter activity,RAW-Dual [1]; [4],0.749
Cn1cc(-c2cnn3c(N)c(Br)c(C4CCCNC4)nc23)cn1 (stereo not drawn),IRF Lucia reporter activity,RAW-Dual [1]; [7],1.14
Cn1cc(-c2cnn3c(N)c(Br)c(C4CCCNC4)nc23)cn1 (stereo not drawn) (library stock concentration (final ~1000-fold dilution): 2 mM),IRF Lucia reporter activity,RAW-Dual [2]; [5],0.493
same,IRF Lucia reporter activity,RAW-Dual [2]; agonist: LPS (TLR4) 0.1 ug/mL,0.852
COc1ccc(-c2cc3c(C)nc(N)nc3n(C3CCC(OCCO)CC3)c2=O)cn1 (stereo not drawn) (library stock concentration (final ~1000-fold dilution): 10 mM),IRF Lucia reporter activity,RAW-Dual [3]; [5],0.282
same,IRF Lucia reporter activity,RAW-Dual [3]; agonist: LPS (TLR4) 0.1 ug/mL,0.508
COc1ccc(-c2cc3c(C)nc(N)nc3n(C3CCC(OCCO)CC3)c2=O)cn1 (stereo not drawn),IRF Lucia reporter activity,RAW-Dual [1]; [6],0.387
